Numbering of substitutions follows the chain as printed. Numbers in names are those of the source. ± gives the standard deviation of the averaged measurements. Laboratory Escherichia coli strains with one amino-acid change in an essential protein, pooled on minimal glucose agar with carbenicillin or gentamicin at twice the control MIC (plus kanamycin and chloramphenicol for the plasmids), 48 h. Fold change of barcode share against drug-free plates; higher = less susceptible. Active = above 20 in both replicates (the paper's putatively resistant). '<' = one read or none on drug, '>' = one read or none on a drug-free plate. Shares are relative, so most strains fall below 1 when a few take over. Listed are strains with at least 15 reads on both drug-free plates, and hits; most hits rest on fewer reference reads. Replicate rank correlation about 0.5. Edits are read from barcodes.
B1: metE L326A (protein)
chain: MTILNHTLGFPRVGLRRELKKAQESYWAGNSTREELLAVGRELRARHWDQQKQAGIDLLPVGDFAWYDHVLTTSLLLGNVPARHQNKDGSVDIDTLFRIGRGRAPTGEPAAAAEMTKWFNTNYHYMVPEFVKGQQFKLTWTQLLDEVDEALALGHKVKPVLLGPVTWLWLGKVKGEQFDRLSLLNDILPVYQQVLAELAKRGIEWVQIDEPALVLELPQAWLDAYKPAYDALQGQVKLLLTTYFEGVTPNLDTITALPVQGLHVDLVHGKDDVAELHKRLPSDWLLSAGLINGRNVWRADLTEKYAQIKDIVGKRDLWVASSCSLAHSPIDLSVETRLDAEVKSWFAFALQKCHELALLRDALNSGDTAALAEWSAPIQARRHSTRVHNPAVEKRLAAITAQDSQRANVYEVRAEAQRARFKLPAWPTTTIGSFPQTTEIRTLRLDFKKGNLDANNYRTGIAEHIKQAIVEQERLGLDVLVHGEAERNDMVEYFGEHLDGFVFTQNGWVQSYGSRCVKPPIVIGDISRPAPITVEWAKYAQSLTDKPVKGMLTGPVTILCWSFPREDVSRETIAKQIALALRDEVADLEAAGIGIIQIDEPALREGLPLRRSDWDAYLQWGVEAFRINAAVAKDDTQIHTHMCYCEFNDIMDSIAALDADVITIETSRSDMELLESFEEFDYPNEIGPGVYDIHSPNVPSVEWIEALLKKAAKRIPAERLWVNPDCGLKTRGWPETRAALANMVQAAQNLRRG
B2: metE L326W (protein)
chain: B1 chain with A326W
B3: metE V481A (protein)
chain: B1 chain with A326L, V481A
B4: metE L326Q (protein)
chain: B1 chain with A326Q
B5: metE L326D (protein)
chain: B1 chain with A326D
B6: metE V481Q (protein)
chain: B1 chain with A326L, V481Q
B7: metE V481W (protein)
chain: B1 chain with A326L, V481W

What follows are proteins tested against Escherichia coli (laboratory strain) (assay: barcode share on antibiotic plates over drug-free plates; higher = less susceptible). Conditions: antibiotic: carbenicillin; 2× MIC (3.1 µg/mL).
Procedure: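 A pool of E. coli strains, each edited to carry one amino-acid change in an essential protein, was grown for 48 h on minimal glucose agar with or without antibiotic; strain barcodes were sequenced; mean of two replicates.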
B1 was tested, and the “fold change of barcode share” value was 0.544 ± 0.06.
B2 was tested, and the “fold change of barcode share” value was 0.45 ± 0.14.
In the case of B3, the “fold change of barcode share” value is reported as 1.92 ± 1.3.
For B4, the “fold change of barcode share” value was 0.446 ± 0.12.
With B5 the “fold change of barcode share” value was 0.52 ± 0.095.
With B6 the “fold change of barcode share” value was 0.71 ± 0.11.
In the case of B7, the “fold change of barcode share” value is reported as 0.46 ± 0.092.

Same assay, conditions: antibiotic: gentamicin; 2× MIC (MIC 0.45 µg/mL)
With B1 the “fold change of barcode share” value was 0.205 ± 0.28.
B2 was tested, and the “fold change of barcode share” value was 0.0187 ± 0.0074.
With B3 the “fold change of barcode share” value was 0.011 ± 0.0008.
For B4, the “fold change of barcode share” value was less than 0.00695.
With B5 the “fold change of barcode share” value was 0.0232 ± 0.0053.
With B6 the “fold change of barcode share” value was 0.014 ± 0.011.
With B7 the “fold change of barcode share” value was 0.0277 ± 0.0032.

— the supplement of paper PMC11876631
